Laboratory results taken from the supplement of paper PMC4604168 (melanoma cell lines).
The other results are listed elsewhere or left out. Single values are uncertain, as repeats are few or missing.

Columns and labels:
Assay in all cases: cell count relative to DMSO control; melanoma cells; higher = more viable cells
Details in all cases: library dose: standard library concentration; 72 h
501Mel = system: 501Mel
A101D = system: A101D
A2058 = system: A2058
A375 = system: A375
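Also: cells treated in 1,536-well plates, then fixed and DAPI-stained, with nuclei counted from automated high-throughput microscope images.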

## C=C(c1ccc(C(=O)O)cc1)c1cc2c(cc1C)C(C)(C)CCC2(C)C [Bexarotene] + CC(C)CCN1c2nc(Nc3cc(F)c(O)c(F)c3)ncc2N(C)C(=O)C1C [BID1870] (first compound 10 µM, partner dose 1 µM)
501Mel
  cell count: 63.7%
A101D
  cell count: 59%
A2058
  cell count: 102%
A375
  cell count: 97.9%

## CCCS(=O)(=O)Nc1ccc(F)c(C(=O)c2c[nH]c3ncc(Cl)cc23)c1F + CCN(CC)CCCCNc1ncc2cc(-c3cc(OC)cc(OC)c3)c(NC(=O)NC(C)(C)C)nc2n1 [PD173074] (first compound 0.4 µM, partner dose 0.5 µM)
501Mel
  cell count: 87.9%
A101D
  cell count: 80%
A2058
  cell count: 112%
A375
  cell count: 104%

## CN(c1ncccc1CNc1nc(Nc2ccc3c(c2)CC(=O)N3)ncc1C(F)(F)F)S(C)(=O)=O + Oc1nc(-c2ccc(C(F)(F)F)cc2)nc2c1CSCC2 [XAV939] (first compound 0.4 µM, partner dose 10 µM)
501Mel
  cell count: 89.7%
A101D
  cell count: 103%
A2058
  cell count: 79.1%
A375
  cell count: 64.3%

## CCCS(=O)(=O)Nc1ccc(F)c(C(=O)c2c[nH]c3ncc(Cl)cc23)c1F + O=C(O)C(=O)Nc1sc2c(c1C(=O)O)CCNC2 [TCS401] (first compound 0.4 µM, partner dose 8.33333 µM)
501Mel
  cell count: 97.2%
A101D
  cell count: 72%
A2058
  cell count: 103%
A375
  cell count: 83.6%

## CS(=O)(=O)c1ccc(C(=O)Nc2ccc(Cl)c(-c3ccccn3)c2)c(Cl)c1 [vismodegib] + CCCCCCCCCCCC1=C(O)C(=O)C=C(O)C1=O [Embelin] (first compound 5 µM, partner dose 6 µM)
501Mel
  cell count: 111%
A101D
  cell count: 83.4%
A2058
  cell count: 97.4%
A375
  cell count: 107%

## CN(c1ncccc1CNc1nc(Nc2ccc3c(c2)CC(=O)N3)ncc1C(F)(F)F)S(C)(=O)=O + c1cc(-c2cnn3cc(-c4ccc(OCCN5CCCCC5)cc4)cnc23)ccn1 [Dorsomorphin] (first compound 0.4 µM, partner dose 2 µM)
501Mel
  cell count: 31.7%
A101D
  cell count: 60.4%
A2058
  cell count: 63.4%
A375
  cell count: 48.8%

## C=C(c1ccc(C(=O)O)cc1)c1cc2c(cc1C)C(C)(C)CCC2(C)C [Bexarotene] + Cn1cc(/C=C2\C(=O)Nc3cccnc32)c2ccccc21 [GW441756] (first compound 10 µM, partner dose 2 µM)
501Mel
  cell count: 79.6%
A101D
  cell count: 80.2%
A2058
  cell count: 101%
A375
  cell count: 131%

## C=C(c1ccc(C(=O)O)cc1)c1cc2c(cc1C)C(C)(C)CCC2(C)C [Bexarotene] + COc1ccc(-c2ccc3c(N4CCOCC4)nc(N4C[C@@H](C)O[C@@H](C)C4)nc3n2)cc1CO [KU0063794] (first compound 10 µM, partner dose 0.1 µM)
501Mel
  cell count: 88.3%
A101D
  cell count: 79.7%
A2058
  cell count: 85.9%
A375
  cell count: 99.2%

## CN(c1ncccc1CNc1nc(Nc2ccc3c(c2)CC(=O)N3)ncc1C(F)(F)F)S(C)(=O)=O + N#Cc1c(O)c2c(-c3ccc(-c4ccccc4O)cc3)csc2[nH]c1=O [A769662] (first compound 0.4 µM, partner dose 10 µM)
501Mel
  cell count: 98.2%
A101D
  cell count: 103%
A2058
  cell count: 93.6%
A375
  cell count: 85.3%

## C=C(c1ccc(C(=O)O)cc1)c1cc2c(cc1C)C(C)(C)CCC2(C)C [Bexarotene] + CCN(CC)CCCCNc1ncc2cc(-c3cc(OC)cc(OC)c3)c(NC(=O)NC(C)(C)C)nc2n1 [PD173074] (first compound 10 µM, partner dose 0.5 µM)
501Mel
  cell count: 80%
A101D
  cell count: 103%
A2058
  cell count: 109%
A375
  cell count: 105%

## C=C(c1ccc(C(=O)O)cc1)c1cc2c(cc1C)C(C)(C)CCC2(C)C [Bexarotene] + COc1cc2ncnc(Nc3ccc(Oc4ccccc4)cc3)c2cc1OC [SrcI1] (first compound 10 µM, partner dose 10 µM)
501Mel
  cell count: 71.5%
A101D
  cell count: 69.4%
A2058
  cell count: 93%
A375
  cell count: 140%

## CS(=O)(=O)c1ccc(C(=O)Nc2ccc(Cl)c(-c3ccccn3)c2)c(Cl)c1 [vismodegib] + O=C1NC(=O)/C(=C/c2ccc(-c3ccc(F)cc3O)o2)S1 [AS252424] (first compound 5 µM, partner dose 5 µM)
501Mel
  cell count: 99.7%
A101D
  cell count: 108%
A2058
  cell count: 84.4%
A375
  cell count: 145%

## CN(c1ncccc1CNc1nc(Nc2ccc3c(c2)CC(=O)N3)ncc1C(F)(F)F)S(C)(=O)=O + CC(C)CCN1c2nc(Nc3cc(F)c(O)c(F)c3)ncc2N(C)C(=O)C1C [BID1870] (first compound 0.4 µM, partner dose 1 µM)
501Mel
  cell count: 65.9%
A101D
  cell count: 68.2%
A2058
  cell count: 76.1%
A375
  cell count: 70.7%

## NC1(c2ccc(-c3nc4ccn5c(=O)[nH]nc5c4cc3-c3ccccc3)cc2)CCC1 + O=C1NC(=O)/C(=C/c2ccc(-c3ccc(F)cc3O)o2)S1 [AS252424] (first compound 2 µM, partner dose 5 µM)
501Mel
  cell count: 83.6%
A101D
  cell count: 95.6%
A2058
  cell count: 75.1%
A375
  cell count: 126%

## CN(c1ncccc1CNc1nc(Nc2ccc3c(c2)CC(=O)N3)ncc1C(F)(F)F)S(C)(=O)=O + CCN(CC)CCCCNc1ncc2cc(-c3cc(OC)cc(OC)c3)c(NC(=O)NC(C)(C)C)nc2n1 [PD173074] (first compound 0.4 µM, partner dose 0.5 µM)
501Mel
  cell count: 56.2%
A101D
  cell count: 81.9%
A2058
  cell count: 80.8%
A375
  cell count: 79.8%

## C=C(c1ccc(C(=O)O)cc1)c1cc2c(cc1C)C(C)(C)CCC2(C)C [Bexarotene] + Oc1cc(-c2nc(-c3ccccc3)[nH]c2-c2ccncc2)ccc1Cl [L779450] (first compound 10 µM, partner dose 1 µM)
501Mel
  cell count: 68.2%
A101D
  cell count: 72.9%
A2058
  cell count: 86.5%
A375
  cell count: 91.4%

## CN(c1ncccc1CNc1nc(Nc2ccc3c(c2)CC(=O)N3)ncc1C(F)(F)F)S(C)(=O)=O + COc1ccc2c(c1)CCC1C2CCC2(C)C(NCCCCCCN3C(=O)C=CC3=O)CCC12 [U73122] (first compound 0.4 µM, partner dose 2 µM)
501Mel
  cell count: 91.5%
A101D
  cell count: 91.1%
A2058
  cell count: 65.1%
A375
  cell count: 87.3%

## CCCS(=O)(=O)Nc1ccc(F)c(C(=O)c2c[nH]c3ncc(Cl)cc23)c1F + Cn1cc(/C=C2\C(=O)Nc3cccnc32)c2ccccc21 [GW441756] (first compound 0.4 µM, partner dose 2 µM)
501Mel
  cell count: 87.2%
A101D
  cell count: 76.2%
A2058
  cell count: 123%
A375
  cell count: 83.6%

## CN(c1ncccc1CNc1nc(Nc2ccc3c(c2)CC(=O)N3)ncc1C(F)(F)F)S(C)(=O)=O + O=C1NC(=O)/C(=C/c2ccc(-c3ccc(F)cc3O)o2)S1 [AS252424] (first compound 0.4 µM, partner dose 5 µM)
501Mel
  cell count: 70%
A101D
  cell count: 89.9%
A2058
  cell count: 81.5%
A375
  cell count: 80.1%

## NC1(c2ccc(-c3nc4ccn5c(=O)[nH]nc5c4cc3-c3ccccc3)cc2)CCC1 + Oc1cc(-c2nc(-c3ccccc3)[nH]c2-c2ccncc2)ccc1Cl [L779450] (first compound 2 µM, partner dose 1 µM)
501Mel
  cell count: 91%
A101D
  cell count: 70.8%
A2058
  cell count: 58.9%
A375
  cell count: 75.4%

## NC1(c2ccc(-c3nc4ccn5c(=O)[nH]nc5c4cc3-c3ccccc3)cc2)CCC1 + Cn1cc(/C=C2\C(=O)Nc3cccnc32)c2ccccc21 [GW441756] (first compound 2 µM, partner dose 2 µM)
501Mel
  cell count: 91.8%
A101D
  cell count: 109%
A2058
  cell count: 84.4%
A375
  cell count: 152%
